# Some of the results follow.
# B1: DC-ASGPR S+GEE (Homo sapiens) (protein)
# chain: MTRTYENFQYLENKVKVQGFKNGPLPLQSLLQRLRSGPCHLLLSLGLGLLLLVIICVVGFQNSKFQRDLVTLRTDFSNFTSNTVAEIQALTSQGSSLEETIASLKAEVEGFKQERQAVHSEMLLRVQQLVQDLKKLTCQVATINNNGEEASTEGTCCPVNWVEHQDSCYWFSHSGMSWAEAEKYCQLKNAHLVVINSREEQNFVQKYLGSAYTWMGLSDPEGAWKWVDGTDYATGFQNWKPGQPDDWQGHGLGGGEDCAHFHPDGRWNDDVCQRPYHWVCEAGLGQTSQESH
# Tests used:
# Assay in all cases: glycan array binding signal (z-score within array); higher = stronger binding
# Conditions in all cases: glycan notation: IUPAC condensed, linker removed
# [1] = target: Gal(b1-4)GalNAc(b1-3)[Fuc(a1-2)]Gal(b1-4)GlcNAc
# Summary of the method: (§1)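 Glycan array data were curated from 3228 arrays in the Consortium for Functional Glycomics database and kept only where the protein sequence was available. Glycan names were converted to IUPAC-condensed notation, and columns mapping to the same glycan were averaged. The binding signal is a within-array Z-score, averaged across arrays of the same protein sequence at different concentrations or buffers and across linkers. Negative Z-scores can be read as non-binding.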
# Gal(b1-4)Glc = target: Gal(b1-4)Glc
# Summary of the method: as §1
# Gal(b1-4)Glc6S = target: Gal(b1-4)Glc6S
# Summary of the method: as §1
# Gal(b1-4)GlcNAc = target: Gal(b1-4)GlcNAc
# Summary of the method: as §1
# [2] = target: Gal(b1-4)GlcNAc(a1-6)Gal(b1-4)GlcNAc
# Summary of the method: as §1
# Gal(b1-4)GlcNAc(b1-2)Man = target: Gal(b1-4)GlcNAc(b1-2)Man
# Summary of the method: as §1
# [3] = target: Gal(b1-4)GlcNAc(b1-2)Man(a1-3)Man(b1-4)GlcNAc(b1-4)GlcNAc
# Summary of the method: as §1
# [4] = target: Gal(b1-4)GlcNAc(b1-2)Man(a1-3)[Gal(b1-4)GlcNAc(b1-2)Man(a1-6)]Man(b1-4)GlcNAc(b1-4)GlcNAc
# Summary of the method: as §1
# [5] = target: Gal(b1-4)GlcNAc(b1-2)Man(a1-3)[Gal(b1-4)GlcNAc(b1-2)Man(a1-6)]Man(b1-4)GlcNAc(b1-4)[Fuc(a1-6)]GlcNAc
# Summary of the method: as §1
# [6] = target: Gal(b1-4)GlcNAc(b1-2)Man(a1-3)[Gal(b1-4)GlcNAc(b1-2)Man(a1-6)][Gal(b1-4)GlcNAc(b1-4)]Man(b1-4)GlcNAc(b1-4)[Fuc(a1-6)]GlcNAc
# Summary of the method: as §1
# [7] = target: Gal(b1-4)GlcNAc(b1-2)Man(a1-3)[Gal(b1-4)GlcNAc(b1-2)Man(a1-6)][GlcNAc(b1-4)]Man(b1-4)GlcNAc(b1-4)[Fuc(a1-6)]GlcNAc
# Summary of the method: as §1
# [8] = target: Gal(b1-4)GlcNAc(b1-2)Man(a1-3)[GlcNAc(b1-2)Man(a1-6)]Man(b1-4)GlcNAc(b1-4)GlcNAc
# Summary of the method: as §1
# [9] = target: Gal(b1-4)GlcNAc(b1-2)Man(a1-3)[GlcNAc(b1-4)][Gal(b1-4)GlcNAc(b1-2)Man(a1-6)]Man(b1-4)GlcNAc(b1-4)GlcNAc
# Summary of the method: as §1
# [10] = target: Gal(b1-4)GlcNAc(b1-2)Man(a1-3)[Man(a1-6)]Man(b1-4)GlcNAc(b1-4)GlcNAc
# Summary of the method: as §1
# [11] = target: Gal(b1-4)GlcNAc(b1-2)Man(a1-6)Man(b1-4)GlcNAc(b1-4)GlcNAc
# Summary of the method: as §1
# [12] = target: Gal(b1-4)GlcNAc(b1-2)Man(a1-6)[GlcNAc(b1-2)Man(a1-3)]Man(b1-4)GlcNAc(b1-4)GlcNAc
# Summary of the method: as §1
# [13] = target: Gal(b1-4)GlcNAc(b1-2)Man(a1-6)[Man(a1-3)]Man(b1-4)GlcNAc(b1-4)GlcNAc
# Summary of the method: as §1
# [14] = target: Gal(b1-4)GlcNAc(b1-2)[Gal(b1-4)GlcNAc(b1-4)]Man(a1-3)[Gal(b1-4)GlcNAc(b1-2)Man(a1-6)]Man(b1-4)GlcNAc(b1-4)GlcNAc
# Summary of the method: as §1
# [15] = target: Gal(b1-4)GlcNAc(b1-2)[Gal(b1-4)GlcNAc(b1-4)]Man(a1-3)[Gal(b1-4)GlcNAc(b1-2)[Gal(b1-4)GlcNAc(b1-6)]Man(a1-6)]Man(b1-4)GlcNAc(b1-4)GlcNAc
# Summary of the method: as §1
# [16] = target: Gal(b1-4)GlcNAc(b1-2)[Gal(b1-4)GlcNAc(b1-4)]Man(a1-3)[GlcNAc(b1-4)][Gal(b1-4)GlcNAc(b1-2)Man(a1-6)]Man(b1-4)GlcNAc(b1-4)GlcNAc
# Summary of the method: as §1
# [17] = target: Gal(b1-4)GlcNAc(b1-2)[Gal(b1-4)GlcNAc(b1-4)]Man(a1-3)[GlcNAc(b1-4)][Gal(b1-4)GlcNAc(b1-2)[Gal(b1-4)GlcNAc(b1-6)]Man(a1-6)]Man(b1-4)GlcNAc(b1-4)GlcNAc
# Summary of the method: as §1
# [18] = target: Gal(b1-4)GlcNAc(b1-2)[Gal(b1-4)GlcNAc(b1-6)]Man(a1-6)[Gal(b1-4)GlcNAc(b1-2)Man(a1-3)]Man(b1-4)GlcNAc(b1-4)GlcNAc
# Summary of the method: as §1
binder,measurement,setting,value
B1,glycan array binding signal (z-score),[1],-0.3
same,glycan array binding signal (z-score),Gal(b1-4)Glc,-0.295
same,glycan array binding signal (z-score),Gal(b1-4)Glc6S,-0.348
same,glycan array binding signal (z-score),Gal(b1-4)GlcNAc,-0.336
same,glycan array binding signal (z-score),[2],0.022
same,glycan array binding signal (z-score),Gal(b1-4)GlcNAc(b1-2)Man,0.195
same,glycan array binding signal (z-score),[3],-0.355
same,glycan array binding signal (z-score),[4],-0.239
same,glycan array binding signal (z-score),[5],-0.331
same,glycan array binding signal (z-score),[6],-0.272
same,glycan array binding signal (z-score),[7],-0.3
same,glycan array binding signal (z-score),[8],-0.317
same,glycan array binding signal (z-score),[9],-0.307
same,glycan array binding signal (z-score),[10],-0.231
same,glycan array binding signal (z-score),[11],-0.317
same,glycan array binding signal (z-score),[12],-0.368
same,glycan array binding signal (z-score),[13],-0.297
same,glycan array binding signal (z-score),[14],-0.311
same,glycan array binding signal (z-score),[15],-0.293
same,glycan array binding signal (z-score),[16],-0.291
same,glycan array binding signal (z-score),[17],-0.351
same,glycan array binding signal (z-score),[18],-0.316

# — the supplement of paper PMC8728848
